Results: ChEMBL document CHEMBL4888484, “Replenishing the malaria drug discovery pipeline: Screening and hit evaluation of the MMV Hit Generation Library 1 (HGL1) against asexual blood stage Plasmodium falciparum ,using a nano luciferase reporter read-out” (2022)
Out of some 150,000 compounds screened, about 540 (0.36%) showed an effect of 50% or more. This is one part of the list.

Tested on: Plasmodium falciparum
Assay: Primary screen in NF54 nanoGlo assay, in single point, at 2uM, 72h; a lower Z score goes with more inhibition
Format: functional, Erythrocyte
Settings: timepoint 72 hour

| Structure (SMILES) | % Inhibition [%] | Z score |
| --- | --- | --- |
| CNC(=O)[C@@H](NC(=O)c1c(F)cccc1F)C(C)(C)C | 1 | -0.2 |
| OCC1(CCCc2ccccc2)CCN(Cc2ccc(O)c(Cl)c2)CC1 | -14 | 1.79 |
| C[C@]1(C(=O)Nc2nc(C(N)=O)cs2)CC1(Cl)Cl | -13 | 1.45 |
| Cc1nn(CC(N)=O)c(C)c1-c1ccc2[nH]ccc2c1 | -14 | 1.91 |
| O=S(=O)(c1ccc(-c2ccc(Br)cc2)cc1)N1CCCCC1 | 3 | -0.39 |
| Cc1cc(NC(=O)Cn2ncn(C)c2=O)no1 | -2 | 0.22 |
| Cc1cc(C(=O)Nc2nc(-c3ccc(Oc4ccccc4)cc3)cs2)on1 | -1 | 0.25 |
| CC(=O)c1ccc(C#N)c(N2CCC[C@H](c3nc(C)no3)C2)c1 | -13 | 1.19 |
| CO[C@@H](C)CS(=O)(=O)Nc1cc(C#N)cc(C)n1 | -4 | 0.73 |
| Cc1cc(-c2ccccc2)cc(-c2ccccc2)c1-c1cc(-c2ccccc2)cc(-c2ccccc2)n1 | 40 | -5.16 |
| CCc1noc(C)c1C(=O)N1CCO[C@H](c2nnnn2CCOC)C1 | -5 | 0.94 |
| Cn1cnc2c(NCc3ccc(C(N)=O)o3)ncnc21 | -6 | 1.08 |
| O=C(NCc1ccncc1)c1ccc(CN2CCN(c3ccccc3)CC2)o1 | -15 | 1.77 |
| O=C(Nc1ccc(N2CCCN(Cc3cccc(Cl)c3F)C2=O)cc1)c1ccc(F)cc1 | -14 | 2.02 |
| N#Cc1ccccc1-c1ccc(CN2CCN(c3ncc(F)cn3)CC2)o1 | 5 | -0.63 |
| CC(=O)N1CC2=Nc3cccc4[nH]cc(c34)[C@H](c3ccc(O)cc3)C2=C1O | 1 | -0.15 |
| CN(C)C[C@]1(O)CCCN(C(=O)c2sccc2Cl)CC1 | -7 | 1.36 |
| Cc1ccc(N(C)C(=O)[C@@H]2CCC(=O)N2S(=O)(=O)c2ccc(C)cc2)cc1 | -12 | 1.68 |
| Cc1nnsc1C(=O)N1C[C@@H]2CC[C@H]1CN(C(=O)C1CCC1)C2 | -3 | 0.56 |
| COC(CN1CCC[C@H](NC(=O)c2ccc3ccccc3c2)C1)OC | -6 | 0.87 |
| Cc1ccc2sc(-c3nc4c([nH]3)CCNC4)cc2c1 | 2 | -0.39 |
| COc1ccc(Cl)cc1C(=O)Nc1ccc2c(c1)C(=O)NCCO2 | 20 | -3.7 |

| Structure (SMILES) | % Inhibition [%] | Z score |
| --- | --- | --- |
| COc1ccc2c(c1)CCC[C@@]2(O)CNC(=O)c1cc(C)oc1C | -14 | 1.73 |
| O=C(c1ccco1)N(Cc1ccccc1Br)c1ccccc1Br | -3 | 0.55 |
| Nc1nnc(Cc2ccc3c(c2)OCCO3)o1 | -13 | 1.86 |
| CCOc1ccc(S(=O)(=O)N2CCC(n3ccnn3)CC2)cc1 | -10 | 1.49 |
| CC(C)CN(CC(N)=O)S(=O)(=O)c1ccc(Br)cc1Br | -12 | 2.34 |
| O=C(NC(=O)c1cnn([C@H]2CCS(=O)(=O)C2)c1)Nc1ccccc1 | -10 | 1.18 |
| O=C(NCC1CCCCC1)C1CCN(S(=O)(=O)c2ccc(-c3ccn[nH]3)o2)CC1 | 0 | -0.03 |
| Cc1cnc(CN(CC(N)=O)C(C)C)o1 | -6 | 1.19 |
| CCC[C@H](C)c1nc(C)nn1-c1cccc(C)n1 | -8 | 1.59 |
| O=C(NCCc1ccccn1)c1ncoc1C(F)(F)F | 5 | -0.67 |
| CCCn1ncc(C(=O)N2CCC[C@H](c3nc(=O)[nH][nH]3)C2)c1C1CC1 | 0 | 0.06 |
| CC(C)Oc1ccc2nnc(CCC(=O)Nc3nncs3)n2n1 | -14 | 1.77 |
| Cc1ccc(Nc2ccn(-c3nc(-c4ccccc4)sc3-c3ccccc3)c(=O)n2)cc1 | -11 | 1.21 |
| CCOC(=O)C(C)(C)N(C)Cc1ccccc1C#N | -5 | 0.46 |
| Cc1noc(C)c1CO[C@H]1COCC[C@@H]1NC(=O)C1CCC1 | -15 | 2.87 |
| COc1cccc([C@H](C)NC(=O)C2CCN(c3cc(-c4cccc(C)c4)ncn3)CC2)c1 | -10 | 1.61 |
| COC1(C)CCN(S(=O)(=O)c2cccnc2C#N)CC1 | 8 | -0.92 |
| COc1ccc([C@H]2OCC[C@@H]2NC(=O)Nc2ccc(OC)c3cccnc23)cn1 | -5 | 0.76 |
| O=C(COc1ccccc1O)N1CCn2cncc2C1 | -16 | 1.59 |
| CCc1oc(C(=O)N2CCCNCC2)cc1C | -9 | 0.96 |
| CCCN(Cc1nc(C(C)(C)C)no1)S(=O)(=O)N1CCCCC1 | -13 | 1.61 |
